SMILES strings stand for the structures. “And” between values parts separate entries of the source, which are not always exact repeats. Equal entries are not always repeated. Some of the results follow. The main result of the screen is listed elsewhere. These columns were measured beside it and carry no call.

The text below walks through data of PubChem BioAssay AID1745853 (National Center for Advancing Translational Sciences (NCATS), 2022).

What all share (experiment): Primary Screen for Target Class Profiling of Small Molecule Inhibitors of Methyltransferases
The target in assay [1] is Glycine N-methyltransferase (Homo sapiens) (UniProt Q14749). The note with it: purified enzyme, MTase-Glo SAH luminescence; measured here: GNMT inhibition; at 40 µM; stronger effect = lower value. An outline of the steps: (§1)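 Each enzyme was reacted with SAM and its substrate, with compounds tested once at 40 uM; SAH formed was read by MTase-Glo luminescence.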
Assay [2] has as its target Guanidinoacetate N-methyltransferase (Homo sapiens) (UniProt Q14353). As to conditions: purified enzyme, MTase-Glo SAH luminescence; measured here: GAMT inhibition; at 40 µM; stronger effect = lower value. An outline of the steps: as §1
The target in assay [3] is Histamine N-methyltransferase (Homo sapiens) (UniProt P50135). As to conditions: purified enzyme, MTase-Glo SAH luminescence; measured here: HNMT inhibition; at 40 µM; stronger effect = lower value. An outline of the steps: as §1
Assay [4] has as its target Nicotinamide N-methyltransferase (Homo sapiens) (UniProt P40261). The note with it: purified enzyme, MTase-Glo SAH luminescence; measured here: NNMT inhibition; at 40 µM; stronger effect = lower value. Put shortly:
as §1

The target in assay [5] is Phenylethanolamine N-methyltransferase (Homo sapiens) (UniProt P11086). The note with it: purified enzyme, MTase-Glo SAH luminescence; measured here: PNMT inhibition; at 40 µM; stronger effect = lower value. An outline of the steps:
as §1
On the % scale 0 is the no-effect control and ±100 the full control effect.

On to `CCCN1C(=O)Cc2cc(C(=O)N3CCN(c4ccccc4Cl)CC3)ccc21`, for which the activity change, negative = inhibition in assay [1] is -7.97%; in assay [2] it was -4.35%; in assay [3] it was -7.1%; in assay [4], -21.2%; in assay [5], -14.9%.
For the compound `Cc1cccc(Cn2nc3n(C(C)C)c(=O)c4ccc(C(=O)NC(C)C)cc4n3c2=O)c1`, the activity change, negative = inhibition is 0.648% in assay [1]; 0% in assay [2]; 3.59% in assay [3]; -4.1% in assay [4]; 3.67% in assay [5].
With `Cc1ccsc1-c1[nH]nc2ncc(-c3ccnn3C)nc12`, the activity change, negative = inhibition is -46.2% in assay [1]; -22.7% in assay [2]; -44.1% in assay [3]; -15.7% in assay [4]; -10.7% in assay [5].
The corresponding values for `O=C(CCc1cc2n(n1)CCCNC2)N1CCCC(c2nnc3ccccn23)C1` (stereo not drawn) are -4.66%, -5.49%, -3.51%, -6.85% and -10.8%.
As for `CN(C)C1CCN(C(=O)c2ccc(NC(=O)Nc3ccc(-c4nc(N5CCOCC5)nc(N5CCOCC5)n4)cc3)cc2)CC1`, the activity change, negative = inhibition in assay [1] was -0.593%; in assay [2] it was 12% and 8.33%; in assay [3], 8.44%; in assay [4], -5.62% and -8.46%; in assay [5], 7.02% and 1.9%.
Turning to `CC(C)CNC(=O)c1ccc2c(=O)n(CC(C)C)c3nn(C)c(=O)n3c2c1`, the activity change, negative = inhibition in assay [1] worked out at 5.16%; in assay [2], 2.17%; in assay [3], 10.7%; in assay [4] it was 6.82%; in assay [5], 7.86%.
For the compound `CC(C)Cn1c(=O)c2ccc(C(=O)NC3CCCC3)cc2n2c(SCC(=O)NC(C)C)nnc12`, the activity change, negative = inhibition is -5.11% in assay [1]; 0.939% in assay [2]; -3.06% in assay [3]; -0.63% in assay [4]; -1.59% in assay [5].
Regarding `COc1cc(NC(=O)c2cc3n(n2)CC(C)(C(=O)NC2CCCCC2)N(C)C3=O)cc(OC)c1` (stereo not drawn), the activity change, negative = inhibition worked out at 1.45% in assay [1]; 0% in assay [2]; 4.44% in assay [3]; 3.51% in assay [4]; 2.15% in assay [5].
Regarding `C[C@H]1CC[C@@]2(OC1)O[C@H]1CC3C4CC[C@H]5C[C@@H](O[C@@H]6O[C@H](CO)[C@H](O[C@@H]7O[C@H](CO)[C@@H](O)[C@H](O[C@@H]8OC[C@@H](O)[C@H](O)[C@H]8O)[C@H]7O[C@@H]7O[C@H](CO)[C@@H](O)[C@H](O)[C@H]7O)[C@H](O)[C@H]6O)[C@H](O)C[C@]5(C)C4=CC(=O)[C@]3(C)[C@H]1[C@@H]2C` (stereo partly drawn), the activity change, negative = inhibition in assay [1] was 0%; in assay [2], 6.25%; in assay [3] it was 5.41%; in assay [4] it was -5.29%; in assay [5] it was 7.33%.
`CC(C)CCNC(=O)C1(C)Cn2c(cc3ccccc32)C(=O)N1CCc1ccccc1` (stereo not drawn): the activity change, negative = inhibition in assay [1] came out at 5.77%; in assay [2] it was 1.24%; in assay [3], 8.37%; in assay [4] it was 2.38%; in assay [5] it was 2.36%.
For `Cc1ccc(NC(=O)N2CCn3cccc3C2C)cc1Cl` (stereo not drawn), the activity change, negative = inhibition in assay [1] is -6.08%; in assay [2] it was 0%; in assay [3], 1.34%; in assay [4], -10.6%; in assay [5], -4.36%.
With `COc1ccc(-c2noc(C(=O)O)c2[C@@H](C)NC(=O)C2CCCCC2)cc1`, the activity change, negative = inhibition in assay [1] was -4.01%; in assay [2], -0.842%; in assay [3], -3.51%; in assay [4], -10.1%; in assay [5], -2.7%.
In the case of `CN(C)C(=O)N(C)Cc1ccc(F)cc1`, the activity change, negative = inhibition in assay [1] was -5.54%; in assay [2] it was -8.22%; in assay [3] it was -1.49%; in assay [4], -18.6%; in assay [5], -11.9%.
Turning to `CCCn1c(=O)c2cc(Cl)ccc2n2c(SCC(=O)Nc3cccc(C)c3)nnc12`, the activity change, negative = inhibition in assay [1] was -1.22%; in assay [2], 2.58%; in assay [3], 7.62%; in assay [4], -3.65%; in assay [5], -0.843%.
The corresponding values for `Cc1ccc(CNC(=O)CNC(=O)C2(C)Cn3c(nc4ccccc43)C(=O)N2C)cc1` (stereo not drawn) are 3.22%, 1.56%, 5.19%, 8.5% and 1.29%.
Take `O=C(NC1CCOCC1)c1ccc(OC2CCN(Cc3ccccn3)CC2)cc1`: the activity change, negative = inhibition in assay [1] is -2.57%; in assay [2], -4.32%; in assay [3], 0.068%; in assay [4], -3.56%; in assay [5], -3.56%.
Consider `CCCCCCCCCCC/C=C\C(C)(C)/C=C\CCCC(=O)O`, for which the activity change, negative = inhibition in assay [1] is -9.82%; in assay [2] it was 3.59%; in assay [3], -3.59%; in assay [4] it was -11.8%; in assay [5], 1.62%.
In the case of `COc1ccccc1NC(=O)CSc1nnc2n(CC(C)C)c(=O)c3ccccc3n12`, the activity change, negative = inhibition in assay [1] was -16.6%; in assay [2], -4.56%; in assay [3] it was 3.76%; in assay [4] it was -18.6%; in assay [5], -6.56%.
On to `Cc1occc(=O)c1O[C@@H]1O[C@H](CO[C@@H]2OC[C@](O)(CO)[C@H]2O)[C@@H](O)[C@H](O)[C@H]1O`, for which the activity change, negative = inhibition in assay [1] is 2.82%; in assay [2] it was 5.22%; in assay [3], 5.24%; in assay [4], -6.59%; in assay [5], 1.52%.
In the case of `C[C@H]1[C@@H](O)[C@H](O)C2[C@]3(C)C([C@@H](O)[C@H]4OC(=O)[C@@H]1[C@@]24C)[C@](C)(O)C=C[C@H]3O[C@@H]1O[C@H](CO)[C@@H](O)[C@H](O)[C@H]1O` (stereo partly drawn), the activity change, negative = inhibition in assay [1] was 0.461%; in assay [2], -1.48%; in assay [3] it was 9.4%; in assay [4], -12.4%; in assay [5] it was 2.98%.
The corresponding values for `CCc1cccc(N2C(=O)c3c(C(=O)OC)ncn3CC2(C)C(=O)NC2CCCC2)c1` (stereo not drawn) are -1.39%, 0.165%, -13.2%, -2% and -4.23%.
Consider `CCOc1ccccc1OCCN[C@H](C)Cc1ccc(OC)c(S(N)(=O)=O)c1`, for which the activity change, negative = inhibition in assay [2] is 5.33%; in assay [4], -16.4%; in assay [5], 5.15%.
Take `CCc1cc2c(cc3n2CC(C)(C(=O)NC2CCCCC2)N(Cc2ccc(F)cc2)C3=O)s1` (stereo not drawn): the activity change, negative = inhibition was 2.18% in assay [1]; 0% in assay [2]; 7.28% in assay [3]; 4.15% in assay [4]; -5.89% in assay [5].
Consider `CCCN1C(=O)c2c(C(=O)Nc3c(C)cccc3C)ncn2CC1(C)C(=O)NCc1ccc(C)cc1` (stereo not drawn), for which the activity change, negative = inhibition in assay [1] was -0.921%; in assay [2], 0%; in assay [3] it was 12.5%; in assay [4] it was 9.94%; in assay [5] it was 9.22%.
Turning to `COc1cccc(CNC(=O)c2ccc3c(=O)nc4c(-c5ccccc5F)n[nH]n4c3c2)c1`, the activity change, negative = inhibition in assay [1] was -21.3%; in assay [2], -4.2%; in assay [3] it was 3.88%; in assay [4], -1.91%; in assay [5], -0.608%.
Consider `COc1ccc(CC(NC(C)=O)C(=O)O)cc1` (stereo not drawn), for which the activity change, negative = inhibition was -1.5% in assay [1]; 3.33% in assay [2]; 1.55% in assay [3]; -8.34% in assay [4]; -0.573% in assay [5].
Take `CC1OC(OC2C(CO)OC(OCC3OC(OC(=O)C45CCC(C)(C)CC4C4=CCC6C7(C)CCC(OC8OC(C(=O)O)C(O)C(OC9OC(CO)C(O)C(O)C9O)C8O)C(C)(C)C7CCC6(C)C4(C)CC5)C(O)C(O)C3O)C(O)C2O)C(O)C(O)C1O` (stereo not drawn): the activity change, negative = inhibition is 3.96% in assay [1]; 6.1% in assay [2]; 9.68% in assay [3]; -3.22% in assay [4]; 3.82% in assay [5].
Regarding `C[C@@H]1CCCN1CCc1cc2cc(-c3ccc(C#N)cc3)ccc2o1`, the activity change, negative = inhibition was -9.98% in assay [1]; 0.837% in assay [2]; -35.1% in assay [3]; -18.8% in assay [4]; -5.75% in assay [5].
As for `COCCCNC(=O)CN1CCCc2nc(-c3ccncc3)ncc2C1=O`, the activity change, negative = inhibition in assay [1] was -5.7%; in assay [2], -1.85%; in assay [3], -1.04%; in assay [4] it was -2.8%; in assay [5], 0.405%.
With `COc1ccc(OC)c2c1cc1n2CC(C)(C(=O)NC2CCCCC2C)N(Cc2cccnc2)C1=O` (stereo not drawn), the activity change, negative = inhibition in assay [1] is -3.64%; in assay [2], 2.95%; in assay [3], 3.95%; in assay [4], -3.25%; in assay [5] it was -4.14%.
Taken in the same sequence, the figures for `COc1cc(Cl)c(CN2CCC[C@H]2C(=O)O)cc1OC` were -20.9%, -8.35%, -4.96%, -13.4% and 2.76%.
For `CC(C)(C)CC(=O)N1CC[C@H](NC(=O)NC2CCCCC2)[C@H]1C(=O)N[C@H](Cc1c[nH]c2ccccc12)C(N)=O`, the activity change, negative = inhibition is -1.9% in assay [1]; -2.25% in assay [2]; 0.459% in assay [3]; 0.114% in assay [4]; 1.84% in assay [5].
On to `COCCNC(=O)C[C@@H]1O[C@H](CNS(=O)(=O)c2ccc(C)cc2)[C@@H](O)[C@H]1O`, for which the activity change, negative = inhibition in assay [1] was -0.37%; in assay [2], 0.977%; in assay [3], 1.16%; in assay [4] it was 2.56%; in assay [5], 4.96%.
The corresponding values for `Cn1ccnc1-c1ccc(N2CCCC(CO)(CCOc3ccccc3)C2)nn1` (stereo not drawn) are -4.34%, -4.74%, -1.72%, -16% and -3.38%.
In the case of `CC(C)[N+]1(C)C2CCC1CC(OC(=O)C(CO)c1ccccc1)C2` (stereo not drawn), the activity change, negative = inhibition in assay [1] was 0.025%; in assay [2], -15.6%; in assay [3] it was -5.71%; in assay [4] it was -20.6%; in assay [5], -17.6%.
